{"sequences": {"note": "By UniProt entry, the sequences of proteins in these tests, tags left out.", "UniProt P12004": "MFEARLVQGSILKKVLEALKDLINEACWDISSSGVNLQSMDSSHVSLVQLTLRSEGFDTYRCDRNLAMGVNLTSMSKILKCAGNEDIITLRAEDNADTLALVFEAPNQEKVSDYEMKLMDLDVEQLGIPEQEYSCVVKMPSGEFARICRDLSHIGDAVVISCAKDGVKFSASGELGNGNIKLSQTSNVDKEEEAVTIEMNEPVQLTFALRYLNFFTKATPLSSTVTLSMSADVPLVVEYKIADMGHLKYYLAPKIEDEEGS", "UniProt Q03267": "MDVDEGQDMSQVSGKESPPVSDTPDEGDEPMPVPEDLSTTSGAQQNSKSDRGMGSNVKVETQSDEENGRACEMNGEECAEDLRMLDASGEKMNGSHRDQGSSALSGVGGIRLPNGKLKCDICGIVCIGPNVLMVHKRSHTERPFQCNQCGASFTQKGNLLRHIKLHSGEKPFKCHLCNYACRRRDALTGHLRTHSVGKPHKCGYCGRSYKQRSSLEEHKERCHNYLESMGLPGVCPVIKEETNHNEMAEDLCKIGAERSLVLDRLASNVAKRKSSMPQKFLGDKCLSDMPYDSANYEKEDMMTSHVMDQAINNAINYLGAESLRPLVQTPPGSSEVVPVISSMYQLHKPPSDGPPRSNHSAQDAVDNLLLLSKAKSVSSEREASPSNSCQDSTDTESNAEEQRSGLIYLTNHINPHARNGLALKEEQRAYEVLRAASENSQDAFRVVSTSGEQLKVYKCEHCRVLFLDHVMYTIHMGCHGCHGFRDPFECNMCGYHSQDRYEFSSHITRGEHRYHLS"}, "source": "paper PMC4256266", "key": {"[1]": {"molecular_target": "IKAROS (endogenous, Jurkat) (human (endogenous in Jurkat)) (UniProt Q13422)", "assay": "SEC; nuclear extracts of wild type Jurkat cells fractionated on a Superose 6 10/300GL column; fractions analysed by western blot"}, "[2]": {"molecular_target": "PCNA (human (endogenous in Jurkat)) (UniProt P12004)", "assay": "co-IP; Jurkat cell nuclear extracts, endogenous proteins; IP with antibodies to IKAROS, BRD4, Mi2, RBBP4, MTA2, MBD3, CDK9 or CYCT1, IgG control; Mi2-CDK9 also with lysis buffer containing 1 µg/ml DNase1"}, "[3]": {"molecular_target": "CCNT1 (CYCLIN T1) (human (endogenous in Jurkat)) (UniProt O60563)", "assay": "co-IP; Jurkat cell nuclear extracts, endogenous proteins; IP with antibodies to IKAROS, BRD4, Mi2, RBBP4, MTA2, MBD3, CDK9 or CYCT1, IgG control; Mi2-CDK9 also with lysis buffer containing 1 µg/ml DNase1"}, "[4]": {"molecular_target": "CDK9 (human (endogenous in Jurkat)) (UniProt P50750)", "assay": "co-IP; Jurkat cell nuclear extracts, endogenous proteins; IP with antibodies to IKAROS, BRD4, Mi2, RBBP4, MTA2, MBD3, CDK9 or CYCT1, IgG control; Mi2-CDK9 also with lysis buffer containing 1 µg/ml DNase1"}, "[5]": {"molecular_target": "IKAROS (endogenous, Jurkat) (human (endogenous in Jurkat)) (UniProt Q13422)", "assay": "co-IP; Jurkat cell nuclear extracts, endogenous proteins; IP with antibodies to IKAROS, BRD4, Mi2, RBBP4, MTA2, MBD3, CDK9 or CYCT1, IgG control; Mi2-CDK9 also with lysis buffer containing 1 µg/ml DNase1"}, "[6]": {"molecular_target": "IKAROS (endogenous, Jurkat) (human (endogenous in Jurkat)) (UniProt Q13422)", "assay": "co-IP; whole cell extracts of Ikaros knock-down (Ik-sh) or non-target control (Nt-sh) Jurkat cells, endogenous proteins"}, "[7]": {"molecular_target": "IKAROS (endogenous, G1E2) (mouse (endogenous in G1E2)) (UniProt Q03267)", "assay": "co-IP; G1E2 nuclear extracts, endogenous proteins; IP with IKAROS antibodies or IgG, blot PP1α"}}, "note": "These are yes or no findings as the source states them, for the method shown. For part of these data: In cells and extracts the contact can be indirect. Some binding calls cover weakened binding; strength is not graded here.", "data": [{"substance": "Protein Phosphatase 1α (PP1α) (from UniProt P62136 1-330) (enzyme)", "values": [{"measurement": "binding", "setting": "[1]", "result": "binds"}]}, {"substance": "RBBP4 (from UniProt Q09028 1-425)", "values": [{"measurement": "binding", "setting": "[2]", "result": "no binding"}, {"measurement": "binding", "setting": "[3]", "result": "binds"}, {"measurement": "binding", "setting": "[4]", "result": "binds"}]}, {"substance": "CDK9 (from UniProt P50750 1-372) (enzyme)", "values": [{"measurement": "binding", "setting": "[1]", "result": "binds"}, {"measurement": "binding", "setting": "[2]", "result": "no binding"}, {"measurement": "binding", "setting": "[5]", "result": "binds"}, {"measurement": "binding", "setting": "[6]", "result": "binds"}]}, {"substance": "PP1α (endogenous, G1E2) (from UniProt P62137 1-330) (enzyme)", "values": [{"measurement": "binding", "setting": "[7]", "result": "binds"}]}]}
